From PubChem BioAssay AID1224863 (Southern Research Institute, 2016)
“And” between values parts separate entries of the source, which are not always exact repeats. Equal values may be shown once. The list shows a part of the results. Further columns of the screen follow, without active or inactive calls.

Experiments:
[1] = total CFTR protein upregulators, primary screen, cell-based, HeLa F508del-CFTR, immunofluorescence, viability (AID 1224863); details: 24 h, stronger effect = higher value; min viability: measured here: HeLa viability, alamarBlue, dose 25, library dosed in µM unless noted; viability: measured here: primary viability 25 uM, at 25 µM, library dosed in µM unless noted;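 for fold increase: total CFTR protein by anti-CFTR immunofluorescence in fixed cells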
[2] = target: Cystic fibrosis transmembrane conductance regulator (Homo sapiens) (UniProt P13569); assay: as above; details: 24 h, stronger effect = higher value; measured here: primary screen single dose 25 uM, at 25 µM, library dosed in µM unless noted
Chain of UniProt P13569 (P13569 whole entry, looked up): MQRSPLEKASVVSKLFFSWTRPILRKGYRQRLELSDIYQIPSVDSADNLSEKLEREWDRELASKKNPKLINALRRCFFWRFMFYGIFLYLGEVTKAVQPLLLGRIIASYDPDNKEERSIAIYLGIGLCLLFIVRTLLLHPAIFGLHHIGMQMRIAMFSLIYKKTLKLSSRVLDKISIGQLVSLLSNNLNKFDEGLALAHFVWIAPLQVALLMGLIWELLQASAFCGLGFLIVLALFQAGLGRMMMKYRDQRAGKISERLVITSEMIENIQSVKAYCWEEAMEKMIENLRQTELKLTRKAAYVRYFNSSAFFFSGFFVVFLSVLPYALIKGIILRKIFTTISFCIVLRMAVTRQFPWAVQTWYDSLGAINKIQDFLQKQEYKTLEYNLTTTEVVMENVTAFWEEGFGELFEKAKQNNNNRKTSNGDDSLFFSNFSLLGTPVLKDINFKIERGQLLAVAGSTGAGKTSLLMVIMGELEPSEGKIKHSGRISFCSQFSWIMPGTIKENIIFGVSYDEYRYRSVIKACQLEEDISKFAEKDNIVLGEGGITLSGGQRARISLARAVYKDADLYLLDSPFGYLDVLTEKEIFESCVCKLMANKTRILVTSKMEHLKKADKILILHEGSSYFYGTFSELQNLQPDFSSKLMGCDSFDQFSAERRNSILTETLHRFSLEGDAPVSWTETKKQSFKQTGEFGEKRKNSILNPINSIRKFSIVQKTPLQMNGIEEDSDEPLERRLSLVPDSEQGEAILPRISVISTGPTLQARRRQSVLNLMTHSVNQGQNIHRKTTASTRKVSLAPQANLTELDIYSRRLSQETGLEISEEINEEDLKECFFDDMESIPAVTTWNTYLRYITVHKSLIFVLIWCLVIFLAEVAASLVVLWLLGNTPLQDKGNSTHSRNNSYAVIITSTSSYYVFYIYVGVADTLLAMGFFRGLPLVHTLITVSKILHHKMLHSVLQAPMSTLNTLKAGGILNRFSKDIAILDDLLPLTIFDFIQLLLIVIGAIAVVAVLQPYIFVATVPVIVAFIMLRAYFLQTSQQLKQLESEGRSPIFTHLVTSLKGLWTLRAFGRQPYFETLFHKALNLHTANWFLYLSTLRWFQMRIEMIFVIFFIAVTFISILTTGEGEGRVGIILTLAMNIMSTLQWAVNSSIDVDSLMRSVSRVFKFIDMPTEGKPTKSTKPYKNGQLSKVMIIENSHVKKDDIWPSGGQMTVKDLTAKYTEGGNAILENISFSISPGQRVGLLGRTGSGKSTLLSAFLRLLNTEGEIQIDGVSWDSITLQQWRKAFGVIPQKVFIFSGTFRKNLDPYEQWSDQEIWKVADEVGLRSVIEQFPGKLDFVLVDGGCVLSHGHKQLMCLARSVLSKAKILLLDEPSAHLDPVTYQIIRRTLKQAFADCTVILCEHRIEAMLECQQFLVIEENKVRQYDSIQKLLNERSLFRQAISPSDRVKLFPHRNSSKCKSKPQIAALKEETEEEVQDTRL

Compound	min viability [1]	viability [1]	fold increase [2]
O=C(O)c1ccccc1-c1c2cc(Br)c(=O)cc-2oc2[c]([Hg])c(O)c(Br)cc12	68.4% [measured here: HeLa viability, alamarBlue, dose 1.56, library dosed in µM]	94%	4.2
CC1CC(C)CN(C(=O)CN2CCCC2=O)C1 (centres undefined)	68% [measured here: HeLa viability, alamarBlue, dose 0.31, library dosed in µg/mL]	97% [measured here: primary viability 10 ug/mL, library dosed in µg/mL]	1.6 [measured here: primary screen 10 ug/mL, library dosed in µg/mL]
CC[C@@]1(O)C(=O)OCc2c1cc1n(c2=O)Cc2cc3ccccc3nc2-1	55.5%	67% and 87%	1.32 and 1.43
